Laboratory results published in PubChem BioAssay AID1030 (National Center for Advancing Translational Sciences (NCATS), 2008).
Among all 220,000 compounds or so, about 16,000 (7.3%) were called active. The shares of active, inactive and inconclusive entries below differ from those in the screen. Calls follow the shape of the dose curve; as a rule, active = well fitted inhibition curve with a large enough effect (not every such curve was filed as active); inconclusive = small, poorly fitted or top-dose-only effect, or another doubt; inactive = no such curve, though single readings can be large or run the other way. Potencies of inconclusive entries are left out as doubtful fits.

target: Aldehyde dehydrogenase 1A1 (Homo sapiens) (UniProt P00352); assay: qHTS Assay for Inhibitors of Aldehyde Dehydrogenase 1 (ALDH1A1); conditions: Purified ALDH1A1, NADH fluorescence, propionaldehyde substrate; series mostly up to 75.3 µM; activity, negative = inhibition: at the top concentration;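 as to activity, negative = inhibition: plate controls were no enzyme wells and a reference inhibitor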
Potency is read from the fitted curve at half-maximal effect; tags tell the direction and shape of the fitted curve.

Sequence of UniProt P00352 (P00352 whole entry, looked up): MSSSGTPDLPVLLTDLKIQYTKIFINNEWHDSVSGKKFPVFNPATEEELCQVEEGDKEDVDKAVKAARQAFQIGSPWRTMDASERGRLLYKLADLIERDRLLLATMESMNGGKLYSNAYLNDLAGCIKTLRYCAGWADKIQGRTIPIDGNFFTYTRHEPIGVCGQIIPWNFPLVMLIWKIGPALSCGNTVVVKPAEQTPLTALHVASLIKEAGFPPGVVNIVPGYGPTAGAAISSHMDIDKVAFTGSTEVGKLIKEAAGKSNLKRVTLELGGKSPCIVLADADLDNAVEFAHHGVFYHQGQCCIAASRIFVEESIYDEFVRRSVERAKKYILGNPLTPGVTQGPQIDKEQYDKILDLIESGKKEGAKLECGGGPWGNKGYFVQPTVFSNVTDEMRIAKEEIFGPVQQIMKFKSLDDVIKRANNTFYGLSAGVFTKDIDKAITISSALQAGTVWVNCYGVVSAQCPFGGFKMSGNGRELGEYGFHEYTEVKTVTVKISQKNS

**Q.** With COc1ccc(-n2nc3c(c2NC(=O)C2CCCC2)CS(=O)C3)cc1 (stereo not given) as the molecule, how does the “activity, negative = inhibition” value read?
**A.** inactive: 3.88%

**Q.** For O=C(CN1CCCCC1)Nc1cc(Cl)ccc1Oc1ccccc1, which “activity, negative = inhibition” value is on record?
**A.** inactive: -1.13%

**Q.** How did the Potency turn out when CCOC(=O)N1CCC(NC(=O)Cn2c3c(c(-c4ccccc4Cl)cc2=O)CCC3)CC1 was run?
**A.** inconclusive [inhibitor, partial curve]

**Q.** How did the Potency turn out when O=S(=O)(c1ccccc1)c1nc(-c2ccccc2)oc1N1CCCCC1 was run?
**A.** active: 0.447 µM

**Q.** Which Potency does the source give for Cc1cc(C(=O)NCc2ccco2)cs1 here?
**A.** inconclusive [inhibitor, single point]

**Q.** With COc1ccc(-n2cc(CNC3CCC(O)CC3)c(-c3cccc(F)c3)n2)cc1 (stereo not given) as the molecule, how does the Potency read?
**A.** inconclusive [inhibitor, partial curve]

**Q.** How did the “activity, negative = inhibition” value turn out when CCCn1c(=O)c(C(=O)NCc2ccncc2)c(O)c2ccccc21 was run?
**A.** inactive: -11.2%

**Q.** With CCC(=O)N1c2ccc(S(=O)(=O)CCC(=O)NCc3cccs3)cc2CC1C (stereo not given) as the molecule, how does the Potency read?
**A.** inconclusive [inhibitor, single point]

**Q.** C=CCNc1nc(Nc2ccc(-c3nc4ccccc4o3)cc2)nc(N2CCOCC2)n1 was tested. Which Potency did it give?
**A.** inconclusive [inhibitor, partial curve]

**Q.** How did the Potency turn out when CC(Oc1ccc(Cl)cc1Cl)C(=O)NCc1ccncc1 (stereo not given) was run?
**A.** inconclusive [inhibitor, single point]

**Q.** How did the “activity, negative = inhibition” value turn out when c1ccc2c(c1)oc1c(Nc3ccc4c(c3)OCCO4)ncnc12 was run?
**A.** inactive: 23.3%

**Q.** CCOC(=O)c1c(C)[nH]c(C2=NNC(=Nc3ccccc3)SC2)c1C was tested. Which Potency did it give?
**A.** active: 12.6 µM

**Q.** How did the Potency turn out when CCn1c2ccccc2c2nc3cc(OC)c(OC)cc3nc21 was run?
**A.** inconclusive [inhibitor, single point]

**Q.** Which “activity, negative = inhibition” value does the source give for CCCCSc1nnc(CSc2nc3nc(C)cc(C)n3n2)o1 here?
**A.** inactive: -7.2%

**Q.** How did the “activity, negative = inhibition” value turn out when C=C1C[C@@]23CC4C5[C@@]6(C)C[C@H](O)C[C@@]57C2[C@H](O)[C@@H]1[C@H](O)[C@H]3[C@H]7N4C6 was run?
**A.** inactive: 8.63%

**Q.** How did the Potency turn out when COc1ccc(-c2ccc(C#N)c(SCC(=O)NC3CC3)n2)cc1OC was run?
**A.** inconclusive [inhibitor, partial curve]

**Q.** For C/C(=N/NC(=O)C1CCN(S(=O)(=O)c2ccc(C)cc2)CC1)c1cccc([N+](=O)[O-])c1, which Potency is on record?
**A.** inconclusive [inhibitor, partial curve]

**Q.** How did the Potency turn out when Cc1ccc(Cn2c(=O)c3ccccc3n3nc(C)cc23)cc1 was run?
**A.** inconclusive [inhibitor, single point]

**Q.** Which Potency does the source give for Cn1nc(C(=O)NC2CCCCCC2)ccc1=O here?
**A.** inconclusive [inhibitor, single point]

**Q.** CCN(CC)S(=O)(=O)c1ccc2oc(C(=O)N3CCCCCC3)c(C)c2c1 was tested. Which Potency did it give?
**A.** active: 12.6 µM
